Laboratory results taken from the supplement of paper PMC11417369.
± gives the standard deviation of the averaged measurements. The list shows a part of the results.

tested on: PfAP2-LT AP2 domain (GST-tagged); experiment: gcPBM binding intensity (ln(normalized median fluorescence intensity)); higher = stronger DNA binding
How it was run: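 Alexa488 anti-GST antibody, scanned at 488 nm, detected GST-tagged P. falciparum DNA-binding domains that had been expressed in E. coli and incubated for 1 h on an Agilent 4 × 180k array. The array carried primer-extended double-stranded 36-bp intergenic genomic probes and negative controls. Binding intensity is the highest Masliner-normalised natural-log median intensity across replicate spots of either orientation of each probe.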

Sequence	gcPBM binding intensity (ln)
TATAAAAATAAGCACACACACAAATATAGATTTATT [CACACA_site6558]	9.79 ± 0.3
ATATATTCTATATATACATGCATATATATTATATGT [TGCATGCA_site185]	8.89 ± 0.46
GTTAAATGAAAATATGTACACACTTGAAAATTTTTA [CACACA_site2924]	8.76 ± 0.37
TGAATAAATATGCAGCGTACATAATCCTCTTAAAAT [XGTACX_site8462]	8.85 ± 0.32
ATGCAACTATATATATATATTATATGTATGAATAAT [XGTACX_negctrl_site434]	8.97 ± 0.28
TTAATAGAAATACGTGCACACTAAAGGGAAAACAAT [CACACA_site4923]	9.32 ± 0.38
ACAAGTATTAATTACACACTCAAAAAGAAAAAACAA [CACACA_site2281]	8.85 ± 0.49
AAAATACGAATATAAACATGCACCATATAGAACAAA [TGCATGCA_site925]	9.17 ± 0.38
TTTTTTTTTTTTTTTACACACTGCATACAAGAAAAA [CACACA_site5642]	8.52 ± 0.23
TAAAATAAAATAAGTAGTACATATATAATTATATAT [XGTACX_site6733]	8.72 ± 0.49
TACAAATATAGATGCACACACATATACATACCTATA [CACACA_site7094]	9.39 ± 0.29
TTTTTACAAAAAAAAAAAAAAAAAATAAAAATAAAT [CACACA_negctrl_site1738]	8.21 ± 0.47
GACAACGTTTCAATGTGTACATATTTATAATATATA [XGTACX_site2427]	8.87 ± 0.28
TATATATATATATATACATGCATTTTTGTTTGCTTA [TGCATGCA_site256]	9.92 ± 0.13
TTTTTTTTTTCTCCTGCATGCAGCATTTATATATTA [TGCATGCA_site390]	9.31 ± 0.38
ATTGAAAAACCGTTTAGTACATATCATCACGTTTGT [XGTACX_site1295]	8.91 ± 0.52
TATATATATATATGTACACACATCAATCATATTAAC [CACACA_site1946]	9.52 ± 0.4
ATATATCATGCCAAGGGTACAAATGTGTAGTTGAAA [XGTACX_site2820]	9.07 ± 0.43
TTTTTTAAATATTATTTTTATGAGTAAATATATTAT [GTGCAC_negctrl_site277]	8.27 ± 0.52
TGAACATCATTTTTATGTACACACACATATACGTTG [XGTACX_site3864]	9.54 ± 0.54
GACGTGGAAAAAAAAACACACACAAAAAAAAAAAAA [CACACA_site9324]	9.26 ± 0.64
AAAACAAACAAAAAAAAAAAAAAAAATATCAATCTA [TGCATGCA_negctrl_site203]	8.36 ± 0.67

Sequence	gcPBM binding intensity (ln)
TAATTACCATATGGTACACACATATTTATAGGTATA [CACACA_site7603]	9.03 ± 0.31
GATAAAATAATATATAGTACTTTTTTAAAATAAATA [XGTACX_site522]	8.27 ± 0.57
ACGTATAATATGTACACACACATATATACCAAAAAA [CACACA_site4661]	9.5 ± 0.35
CGCGCACCCAGACACACACACACACCCATATATATA [CACACA_site2203]	9.96 ± 0.25
GAAAAAAAAAAAAAAAGTACATTCTCTATTTCATGT [XGTACX_site3209]	8.51 ± 0.42
ATAAATTTAAATAGGAGTACACAGCTTTATATTTTG [XGTACX_site4176]	8.67 ± 0.41
TATAAAACACACACACATATATATATATATTTATAT [TGCATGCA_negctrl_site48]	9.69 ± 0.17
AATTTTAAATTTAATTTACACACTTTTCATAGCATT [CACACA_site9264]	8.94 ± 0.41
ATTTACAAAAATTTTGTATAAAGGGATTTTAAAATG [TGCATGCA_negctrl_site350]	8.35 ± 0.4
ATATTTTTTTTTTTCACACACATTTAGATTGTATTA [CACACA_site3137]	9.33 ± 0.52
AAAAAAAAAAAAAATTGTACGGATTCTTTTTTTTTT [XGTACX_site2898]	8.56 ± 0.26
TTGTATAAAAAACTAAAAAATATAAAATAATAAGTG [CACACA_negctrl_site1704]	8.56 ± 0.49
AACATTATCAAATAAACCATAAATCAATTCAATATG [CACACA_negctrl_site696]	8.71 ± 0.45
AAACGTTTATTTTATTGTACATATGAAAAATGCTTC [XGTACX_site6896]	8.63 ± 0.44
GAAATATTGAAACACACACACAAACATATATATATA [CACACA_site1911]	10.1 ± 0.26
TTTATAGTTTTAAACAAAGTAATACAAATGTATATA [CACACA_negctrl_site1716]	8.32 ± 0.47
TATAAAAAAAATAAAATAAAATAAAATAGAAAAATA [TGCATGCA_negctrl_site109]	8.53 ± 0.64
CGTAATAATTAATGTTGTACCCACCAAAAAAATTAA [XGTACX_site8592]	8.67 ± 0.41
ATTACATTTTTGTTTTGTACATATATTTTATAAACA [XGTACX_site494]	8.76 ± 0.42
TATATTTATATATATACACACATAATAAAAAATATA [CACACA_site844]	8.79 ± 0.32
TTGTTTTGTAATAAAAAAAAAATAATATAATATAAT [XGTACX_negctrl_site300]	8.27 ± 0.49
TATTGAAAAAGTGGAAAAAAGTACATCATACGGGAA [CACACA_negctrl_site1091]	8.86 ± 0.47

Sequence	gcPBM binding intensity (ln)
GTAAGAAACAGACACACACACATATAAATATAAATA [CACACA_site6515]	9.86 ± 0.49
AATTTATTAATACAAAGTACTTTCTAATATGAATTT [XGTACX_site8013]	8.62 ± 0.5
GAAAAATTAAAATGTGGTACAATAAAATTTTATTCA [XGTACX_site5030]	8.59 ± 0.61
ATATTTATACTATACACACCCAATTTAAAAAAAAAT [CACACA_site1163]	8.87 ± 0.34
TTATTGCGCACAATTTGTACATATATATATATAGAA [XGTACX_site7573]	8.84 ± 0.4
AGTGTATTAAATTTTGAACACACAAAATAAAACATA [CACACA_site8483]	8.95 ± 0.47
TTTAGACTTTTCTATAGTACATATTATATATATATA [XGTACX_site6532]	8.64 ± 0.38
TTTTAATTTAAAAATTAATTTATATATATATATATA [TGCATGCA_negctrl_site447]	8.635 ± 0.05
TATACCTTAATATACACACATACATATATATATATA [CACACA_site1339]	9.46 ± 0.014
TAAATCACAAAATTATGTACTAAGAAGGAGCAACAT [XGTACX_site6742]	8.86 ± 0.39
TATATACATTTTTATGTGCACATTTTATTTTTAAAT	9.04 ± 0.38
TAACAAAGTAAAAGAACATGCAAACACGCACACAGA [TGCATGCA_site374]	9.36 ± 0.47
GGGGAAAAAGCAGGTTGTACAGTGATGTCCATATAA [XGTACX_site7606]	8.99 ± 0.25
TTTATAAAATATCTTTCACACATTACTATGTATTAT [CACACA_site5148]	8.88 ± 0.43
ATAAAAGTTTAATATTGTACGAACATGCGTTTCTAA [XGTACX_site1487]	8.55 ± 0.4
AAAAAAAAATAAAAAAGTACAGGTAAATATATATAT [XGTACX_site5812]	8.89 ± 0.48
AAAAAAAAAAAATATATATATATATATATAATATTT [GTGCAC_negctrl_site678]	8.88 ± 0.43
GAATAAATAAAAATATGTACATAAATATATATATAT [XGTACX_site8858]	9.3 ± 0.38
AAGACAAATATGTATTGTACGAACGCTTTTTAATTA [XGTACX_site1961]	8.84 ± 0.4
ATACTTTAAAATAATACACACATGGAAAATAAAATT [CACACA_site697]	9.04 ± 0.35
AAAAAAAAAAAAAAAACACACAATTGAATTATTAAG [CACACA_site2864]	8.7 ± 0.61
TTTTATTATTAAACATGTACCCATATTATTGTTATG [XGTACX_site5563]	8.79 ± 0.53

Sequence	gcPBM binding intensity (ln)
ATAAATAGAATAAAATGTACATGTAATACATATATA [XGTACX_site5475]	8.89 ± 0.46
TTCTTAAAAAATCAAACACACATATATATATACATA [CACACA_site2296]	8.65 ± 0.43
GTTTAGATAAAAGGGCGTACATCTATTTTTGACTAA [XGTACX_site7170]	8.62 ± 0.36
AAAACAAAAAAATTTTGTACGAAACAATACTGTAAG [XGTACX_site7992]	8.72 ± 0.47
TATATATATTGTTATTGTACACAAATATAGGAAATA [XGTACX_site7110]	8.61 ± 0.46
AAATTTGGTGAAGGATGTACTTTACCTAATACTTGT [XGTACX_site4825]	8.71 ± 0.38
AGAATTATATCATGGTGTACTTATTTGTTTATTTCT [XGTACX_site5795]	9.05 ± 0.4
AAAAAAATATATTCCTAATTTATGATTAAAAGGAAT [CACACA_negctrl_site751]	8.37 ± 0.43
ATAAATTAAACAAACACACACGTTCTTTTATTTACT [CACACA_site4556]	9.12 ± 0.46
TTTTTTTTTGGGTGTACACATGAATATATATTTTTT [CACACA_site5254]	8.76 ± 0.38
GTATGTATGTATGTATGTACTTATTTATTTATTTAT [XGTACX_site1921]	9.35 ± 0.3
TAAAAGTATTCCTTTTGTACATATAATGAAAACAAT [XGTACX_site2069]	8.52 ± 0.43
CTGTTTTTACTAAGTTGTACAAATGATGATACCCTA [XGTACX_site630]	8.62 ± 0.45
CTATATTTTTAAAAATGTACTTTATAATAAAATACT [XGTACX_site3593]	8.35 ± 0.36
ATACAATAATATAAATGTACAAATTATATCTTAATT [XGTACX_site6004]	8.82 ± 0.44
TAAATTTAAAATGACACACACTAAAATTATTTAAGT [CACACA_site4816]	9.06 ± 0.4
ACCTTTAATATATACACACACATAAAAAAAATATAT [CACACA_site1843]	9.38 ± 0.36
AAATATTCATAGTATACACACATTTATTTATAACCA [CACACA_site6502]	8.82 ± 0.35
AATGATAAAAATAAATGTACAGAATGATATTTTTTT [XGTACX_site5976]	8.71 ± 0.47
ATTAATAAATAAATGACACACACACCCACAAAAAAA [CACACA_site8839]	9.9 ± 0.12
AAAAAATTGTTTCCCTGTACTCAAAAAAAAAAAAAA [XGTACX_site8070]	8.2 ± 0.33
AAAAAAGAAAAGAAATGTACAGAGCTTATCTTTTTA [XGTACX_site5677]	8.61 ± 0.48
